About 18,000 (5.8%) of roughly 310,000 compounds were called active. The call rests on the fitted dose curve; in most records, active means well fitted inhibition curve with a large enough effect; inconclusive means small, poorly fitted or top-dose-only effect, or another doubt; inactive means no such curve, though single readings can be large or run the other way. The inconclusive results got no clear call from the source. Potencies of inconclusive entries are left out as doubtful fits.
Assay: Primary qHTS for delayed death inhibitors of the malarial parasite plastid, 48 hour incubation
Conditions: P. falciparum luciferase growth in erythrocytes; series mostly up to 28.7 µM
Text: The goal of this screen is to discover new antimalarial compounds that act by inhibiting the development of the apicoplast in the malarial parasite Plasmodium falciparum. The biochemical processes that make this organelle essential for erythrocytic stage parasites are not well understood. However, antibiotics such as azithromycin and tetracycline, which target the apicoplast translational machinery, have a potent antimalarial effect.
We have developed a cell-based assay that measures parasite growth based on the expression of an integrated copy of a firefly luciferase reporter. To detect small molecules that cause this "delayed death" phenotype, erythrocytes infected with the luciferase-expressing parasites were incubated with compounds for either one or two generations, corresponding to 48 and 96 hours, respectively. Compounds that inhibit parasite growth in the second generation, but not the first, should be enriched in antimalarials that target the apicoplast. Growth inhibition is detected by a decrease in luciferase activity.
Assay Provider: David Fidock and Eric Ekland, Columbia University
Keywords: NIH Roadmap, MLPCN, MLI, MLSMR, qHTS, NCGC, qHTS, malaria, luciferase, viability
Four microliters of culture medium (RPMI 1640 with 0.5% w/v Albumax (GIBCO), 24 mM sodium bicarbonate and 10 ug/mL gentamycin) were dispensed by a Multi-drop Combi into white solid 1536-well plates (Grenier) and 23 nL compound was added by a pin tool. Four microliters of infected erythrocytes (2% hematocrit, 0.1% parasitemia final concentration) in culture medium were dispensed and the plates incubated for 48 hours at 37 C in 5% CO2. Two microliters of luciferase detection reagent was added and luminescence was detected by a ViewLux (PerkinElmer) reader.
Potency means the concentration at half of the fitted maximal effect; tags describe the fitted curve by direction and shape.

Row | SMILES | Potency
1 | Cc1ccccc1N/N=C/c1sc(=O)n(Cc2cccc(C(=O)O)c2)c1Cl | inconclusive [inhibitor, partial curve, poor fit]
2 | CCS(=O)(=O)C1=NN2C(=N)/C(=C\c3ccc(OS(=O)(=O)c4ccccc4)c(OC)c3)C(=O)N=C2S1 | inconclusive [inhibitor, partial curve]
3 | COc1cccc(C2C3=C(N=c4s/c(=C\c5ccc(OCC(=O)O)cc5)c(=O)n42)c2ccccc2CC3)c1 (stereo not drawn) | inconclusive [inhibitor, partial curve]
